This is one part of the list. The main result of the screen is listed elsewhere. These columns were measured beside it and carry no call. Words in brackets tell the shape of the fitted curve; partial curves, single points and poor fits give uncertain potencies.

24 compounds from PubChem BioAssay (NCATS) can be followed below.
Tags describe the fitted curve by direction and shape.

A short description of the experiment: qHTS drug screen for cell cycle checkpoint inhibitors in PARPi-resistant BRCA-mutant ovarian cancer cell lines. (AID 1963452). To be noted: PEO1/OlaR viability, CellTiter-Glo luminescence, 96 h; measured here: PEO4 viability. The essentials: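 PEO1, PEO4 and PEO1/OlaR ovarian cancer cells, 600 per well, exposed 96 h at 37C to a dilution series. Viability read by CellTiter-Glo luminescence, normalized to DMSO and empty wells; activity summarized as Z-AUC.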
With `COc1cc(=C2C=c3ccccc3=N2)[nH]/c1=C/c1[nH]c(C)cc1C`, the AC50 is 27.5 µM [falling, single point]. The same measure for `CC1=C(c2ccc(O)cc2)[C@H](c2ccc(OCCN3CCCCC3)cc2)Oc2cc(O)ccc21`: 24.5 µM [falling, single point]; for `Nc1nc2c(c(=O)[nH]1)N1CN(c3ccc(C(=O)N[C@@H](CCC(=O)O)C(=O)O)cc3)CC1CN2` (some centres undefined): 6.16 µM [falling, partial curve]; for `O=C(CCCCCCNC(=O)c1cnc(N(c2ccccc2)c2ccccc2Cl)nc1)NO`: 19.5 µM [falling, partial curve]. For `C=CCc1cccc(/C=N/NC(=O)CN2CCN(Cc3ccccc3)CC2)c1O`, the AC50 is 6.92 µM [falling, partial curve]. On to `C/C(=C\C(=O)Nc1ccccc1C(=O)O)c1ccc2ccccc2c1`, for which the AC50 is 15.5 µM [falling, partial curve]. To `CN(C)C/C=C/C(=O)Nc1ccc(C(=O)N2CCC[C@@H](Nc3ncc(Cl)c(-c4c[nH]c5ccccc45)n3)C2)cc1` belongs 0.138 µM [falling, full curve]; to `COc1cc(-c2cc(-c3ccc(N4CCNCC4)cc3)cnc2C)cc(OC)c1OC`, 15.5 µM [falling, single point]. The same measure for `Cc1c(CN2CCC(Nc3ncnc4sc(CC(F)(F)F)cc34)CC2)ccc2c1cc(C#N)n2Cc1cn[nH]c1`: 4.36 µM [falling, partial curve]. To `CCCNC(=O)[C@H]1O[C@@H]1C(=O)N[C@H](C(=O)N1CCC[C@H]1C(=O)OC)C(C)CC` (some centres undefined) belongs 17.4 µM [falling, single point]. In the case of `COc1ccc2c(c1)[C@]1(C[C@H]1c1ccc3c(/C=C/c4ccc(CN5C[C@@H](C)O[C@@H](C)C5)cc4)n[nH]c3c1)C(=O)N2`, the AC50 was 5.49 µM [falling, partial curve, poor fit]. Consider `Nc1ncccc1-c1nc2ccc(-c3ccccc3)nc2n1-c1ccc(C2(N)CCC2)cc1`, for which the AC50 is 19.5 µM [falling, partial curve].

On to `O=C(O)Cc1cccc(OCCCN(Cc2cccc(C(F)(F)F)c2Cl)CC(c2ccccc2)c2ccccc2)c1`, for which the half-maximal activity concentration (AC50) is 27.5 µM [falling, single point]. The same measure for `COc1cc2nc(-c3cc(F)ccc3O)nc(N[C@@H]3CNC[C@H]3C(C)(C)O)c2cc1OC`: 6.92 µM [falling, partial curve]; for `CN(C)CCCOc1ccc(-c2ccc3ncc4c(c3c2)n(C2CCOCC2)c(=O)n4C)cn1`: 3.79 µM [falling, partial curve, poor fit]; for `C[C@@H](Nc1cc(F)cc(F)c1)c1cc(C(=O)N(C)C)cc2c(=O)cc(N3CCOCC3)oc12`: 12.3 µM [falling, partial curve, poor fit]. The same measure for `CNC(=O)c1ccc(Nc2ncc(C(F)(F)F)c(NCc3nccnc3N(C)S(C)(=O)=O)n2)cc1`: 2.19 µM [falling, full curve]. With `COc1ccc([C@@H](O)[C@@H](C)Oc2ccc([C@H]3O[C@H](c4ccc(O[C@H](C)[C@H](O)c5ccc(OC)c(OC)c5)c(OC)c4)[C@H](C)[C@H]3C)cc2OC)cc1OC`, the half-maximal activity concentration (AC50) was 0.0692 µM [falling, full curve, poor fit]. Regarding `COc1ccc(N2C(=O)N(c3c(C)cccc3Cl)Cc3cnc(Nc4ccc(C5CCN(C)CC5)cc4OC)nc32)nc1`, the concentration at half-maximal activity (AC50) was 7.76 µM [falling, partial curve]. The same measure for `COCCNCc1ccc(-c2cc3nccc(Oc4ccc(NC(=S)NC(=O)Cc5ccc(F)cc5)cc4F)c3s2)nc1`: 5.49 µM [falling, full curve]; for `CCCCCCOC(=O)NC(=N)c1ccc(NCc2nc3cc(C(=O)N(CCC(=O)OCC)c4ccccn4)ccc3n2C)cc1`: 12.3 µM [falling, partial curve, poor fit]; for `CC(=O)NCC(=O)N1[C@@H]2CC[C@H]1c1ccc(Nc3ncc(C(F)(F)F)c(NC4CCC4)n3)cc12`: 7.76 µM [falling, partial curve].

For `O=C(NOCC(O)CO)c1ccc(F)c(F)c1Nc1ccc(I)cc1F` (centres undefined), the AC50 was 0.347 µM [falling, full curve, poor fit]. To `CC(C)[C@](O)(c1ccc2cc(OC(F)F)c(OC(F)F)cc2c1)c1cn[nH]n1` belongs 13.8 µM [falling, single point].
